Measurements: patent US20050002959A1 (GlaxoSmithKline, published 2005)
Where “and” joins values, the source holds several entries; their conditions need not be identical. Equal entries are not always repeated. Each block holds one binder with its values, some of them ahead of it.

How the values were obtained:
[1] = target: T1, recombinant human IL4 (non-glycosylated, produced in E. coli) (human, UniProt P05112 25-153); assay: cell-based or functional assay
T1 sequence (looked up): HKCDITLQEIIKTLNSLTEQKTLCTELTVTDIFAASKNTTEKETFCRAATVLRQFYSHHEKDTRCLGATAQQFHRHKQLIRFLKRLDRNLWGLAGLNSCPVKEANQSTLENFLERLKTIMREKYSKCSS

[2] = target: T1, recombinant human IL4 …; assay: titration microcalorimetry, pH 7.4, 150 mM NaCl, 25° C.
Description: (§1) The affinity and detailed thermodynamics of IL4 binding to humanized MAb 3B9 and murine 3B9 (Example 1) were determined by titration microcalorimetry.

[3] = target: T1, recombinant human IL4 …; assay: titration microcalorimetry, calculated for pH 7.4, 150 mM NaCl, 25° C. by the Gibbs-Helmholz equation
Description: as §1

[4] = target: T1, recombinant human IL4 …; assay: cell-based or functional assay; remark: listed apart in the source
[5] = target: T2, 125I-labelled recombinant human IL4 (human, UniProt P05112 25-153, radioiodinated (125I); 'thought to be iodinated at the accessible tyrosine, residue 124'); assay: receptor binding assay (RBA): inhibition of 125I-rhIL4 binding to gibbon MLA cells
T2 sequence (looked up): T1 sequence (looked up)
Description: The ability of 3B9 to inhibit the binding of IL4 to its receptor was studied using ¹²⁵I-rhIL4 binding to the gibbon cell line, MLA [ATCC TIB201], that bears approximately 6000 receptors per cell. MLA cells were incubated with […] for 30 minutes at 37° C. Uptake of radioactivity was determined in a gamma counter after separation of cell bound ¹²⁵I-IL4 by centrifugation through an oil-gradient. Non-specific binding was determined by incubating in the presence of a 100-fold molar excess of unlabelled IL4 [Park et al, J. Exp. Med., 166:476-488 (1987)]. The IC₅₀ value for unlabeled IL4 in this assay was 22 pM when the amount of (added) IL4 was 83 pM. For intact murine (IgG) 3B9 the IC₅₀ was 63 pM, and 93 pM for the Fab fragment.

- IC50, inhibition of IgE secretion in the presence of 667 pM IL4 [1]: 0.65 nM
- IC50, inhibition of IgE secretion in the presence of 1.7 nM IL4 [1]: 1900 pM
- -TΔS [2]: 7.2 kcal/mol IL4
- ΔG [2]: -13.3 kcal/mol IL4
- ΔH [2]: -20.5 kcal/mol IL4
- Kd [3]: 19 pM
- IC50, B cell proliferation (3H-thymidine incorporation, IL4-stimulated human tonsillar B lymphocytes) [4]: 103 pM and 79 pM and 120 pM
- IC50, IgE synthesis (IL4-stimulated human peripheral blood lymphocytes, IgE ELISA) [4]: 658 pM and 370 pM and 1070 pM
B1: murine MAb 3B9 (antibody, IgG1, V domains shown)
VH: QVTLKESGPGILQPSQTLSLTCSFSGFSLSTSGMGVSWIRQPSGKGLEWLAHIYWDDDKRYNPSLKSRLTISKDTSSNQVFLKITSVDTADTATYYCARRETVFYWYFDVWGAGTTVTVSS
VL: DIVLTQSPASLAVSLGQRATISCKASQSVDYDGDSYMNWYQQKPGQPPKLLIYAASNLESGIPARFSGSGSGTDFTLNIHPVEEEDAATYYCQQSNEDPPTFGGGTKLEIKR
notes: Mouse hybridoma antibody, isotype IgG1, kappa light chain; also called 3B9 (murine); murine 3B9

- IC50, inhibition of IgE secretion in the presence of 1.7 nM IL4 [1]: 5000 pM
- IC50 [5]: 93 pM
- IC50, B cell proliferation [4]: 393 pM
- IC50, CD23 induction [4]: 216 pM
- IC50, IgE synthesis [4]: 1170 pM
- IC50, T cell proliferation [4]: 108 pM
B2: Fab fragment of murine MAb 3B9 (Fab, V domains shown)
VH: B1 VH
VL: B1 VL
notes: Fab fragment of the murine 3B9 antibody; also called 3B9 Fab; Murine 3B9 (Fab)
